Results reported in PubChem BioAssay AID1030 (National Center for Advancing Translational Sciences (NCATS), 2008).
Where “and” joins values, the source holds several entries; their conditions need not be identical. Equal entries are not always repeated. Out of some 220,000 compounds screened, about 16,000 (7.3%) were called active. The shares of active, inactive and inconclusive entries below differ from those in the screen. Calls come from the whole dose curve; as a rule, active = well fitted inhibition curve with a large enough effect (not every such curve was filed as active); inconclusive = small, poorly fitted or top-dose-only effect, or another doubt; inactive = no such curve, though single readings can be large or run the other way. Potencies of inconclusive entries are left out as doubtful fits.

Each molecule was assayed against Aldehyde dehydrogenase 1A1 (Homo sapiens) (UniProt P00352) (assay: qHTS Assay for Inhibitors of Aldehyde Dehydrogenase 1 (ALDH1A1)). Conditions: Purified ALDH1A1, NADH fluorescence, propionaldehyde substrate; series mostly up to 75.3 µM; activity, negative = inhibition: at the top concentration.
Sequence of UniProt P00352 (P00352 whole entry, looked up): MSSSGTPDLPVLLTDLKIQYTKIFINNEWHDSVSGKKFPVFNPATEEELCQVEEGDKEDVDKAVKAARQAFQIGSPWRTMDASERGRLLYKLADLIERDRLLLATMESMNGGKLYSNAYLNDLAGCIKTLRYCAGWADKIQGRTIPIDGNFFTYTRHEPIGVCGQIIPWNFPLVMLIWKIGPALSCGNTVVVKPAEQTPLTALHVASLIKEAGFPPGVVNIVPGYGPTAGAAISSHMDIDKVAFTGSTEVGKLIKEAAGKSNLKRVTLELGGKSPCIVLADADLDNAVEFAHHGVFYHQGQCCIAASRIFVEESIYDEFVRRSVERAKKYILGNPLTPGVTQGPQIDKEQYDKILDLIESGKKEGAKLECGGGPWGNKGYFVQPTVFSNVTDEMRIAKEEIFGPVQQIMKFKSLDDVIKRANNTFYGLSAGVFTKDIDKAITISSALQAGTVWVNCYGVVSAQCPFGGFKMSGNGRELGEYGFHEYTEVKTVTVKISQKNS
Potency is the fitted concentration of half-maximal effect; tags give direction and shape of the fitted curve.
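Throughout, for activity, negative = inhibition: plate controls were no enzyme wells and a reference inhibitor.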

Compound	Potency	activity, negative = inhibition
O=C1/C(=C/c2cccnc2)Oc2cc(OS(=O)(=O)c3ccc(F)cc3)ccc21	active: 8.91 µM	
N=c1c(C(=O)NC2CCCC2)cc2c(=O)n3ccccc3nc2n1C1CCCC1	inconclusive [inhibitor, partial curve]	
CN1CCc2c(sc3c2C(=O)NC(c2ccc(-c4cccc(Cl)c4)o2)N3)C1 (configuration not stated)	inconclusive [inhibitor, partial curve]	
Cc1cnc(NC(=O)CSc2c(Cl)cccc2Cl)s1	inconclusive [inhibitor, partial curve]	
CCCOC(=O)c1ccc(NC(=O)c2ccoc2C)cc1	inconclusive [inhibitor, single point]	
O=C(c1ccc(Cn2c(=S)[nH]c3ccc(N4CCOCC4)cc3c2=O)cc1)N1CCC(N2CCCCC2)CC1	inconclusive [inhibitor, single point]	
O=c1oc2c(CN3CCOCC3)c(O)c(Cl)cc2c2c1CCCC2	inconclusive [inhibitor, partial curve]	
O=C(/C=C/c1cccc([N+](=O)[O-])c1)Nc1ccccc1N1CCOCC1	inconclusive [inhibitor, partial curve]	
CCN1CCc2c(C#N)c(NCc3ccccc3)nc(NCCO)c2C1	inconclusive [inhibitor, partial curve]	
O=C(O)c1cc(-c2cccc([N+](=O)[O-])c2)nc2ccccc12	inconclusive [inhibitor, single point]	
O=C1CN(CC(=O)Nc2cccc(Cl)c2Cl)c2ccccc2N1	active: 3.98 µM	
CC(C)(C)NS(=O)(=O)c1ccc(CCC(=O)N2CCCC2)cc1	inconclusive [inhibitor, partial curve, poor fit]	
CCCC(=O)Nc1sc2c(c1C(=O)OCC)CC(C)(C)OC2	inconclusive [inhibitor, single point]	
CC(C)c1ccc(NC(=O)C(c2ccc3c(c2)OCO3)N2CCN(C(=O)c3ccco3)CC2)cc1 (configuration not stated)	inconclusive [inhibitor, single point]	
CC(=O)c1cccc(NC(=S)NNC(=O)c2ccc(C)c([N+](=O)[O-])c2)c1	inconclusive [inhibitor, single point]	
CCc1ccc(S(=O)(=O)NCCc2csc(-c3ccccc3)n2)s1	inconclusive [inhibitor, single point]	
OC1CCN(c2c3c(nc4cc(-c5ccc(F)cc5)nn24)CCC3)CC1		inactive: 6.46%
OCC1(Cc2cccc(Cl)c2)CCCN(Cc2sc(N3CCCC3)nc2Cl)C1 (configuration not stated)		inactive: -3.66%
Cn1c(SCC(=O)Nc2ccc(Br)cc2F)nnc1-c1ccco1		inactive: -4.47%
O=C(CCl)c1ccc2[nH]c(=O)oc2c1	active: 0.282 µM	
N#Cc1cccc(-c2nccc(NCc3cccnc3)n2)c1	inconclusive [inhibitor, partial curve]	
CCCCC(CC)CNC(=O)c1ccc2c(c1)OCO2 (configuration not stated)		inactive: 1.93%
CCc1cc(=O)oc2cc(C)c(CN3CCCCC3)c(O)c12	inconclusive [inhibitor, single point]	
Cc1ccc(/C=C/C2=Cc3c(sc(NC(=O)CSc4n[nH]c(N)n4)c3C#N)C(C)(C)C2)o1	active: 0.794 µM	

Compound	Potency	activity, negative = inhibition
COc1ccc(C(=O)C2CCCN(C(=O)c3noc4c3CCCC4)C2)cc1F (configuration not stated)	active: 3.55 µM	
COc1ccc(/C=C/C(=O)NCc2cn(C)nc2C)cc1COc1ccc(Cl)cc1Br	inconclusive [inhibitor, single point]	
Cc1cc(C=C2C(=O)c3ccccc3C2=O)c(C)n1-c1cccc(C(=O)O)c1	active: 10 µM	
O=c1[nH]c2ccccc2n1CCCOc1ccccc1		inactive: -9.51%
COC(=O)c1cc(=O)n(Cc2cccs2)c(=Nc2ccc(F)cc2)s1	active: 10 µM	
O=C(c1ccncc1)N1CCC[C@@]2(CCN(c3cccc(-c4ccccc4)c3)C2)C1	inconclusive [inhibitor, single point]	
COc1cccc2c1CCC1=CC(=O)CC[C@@]12C	inconclusive [inhibitor, single point]	
C=CC(=O)c1ccc2ccccc2c1	active: 11.2 nM and active: 100 nM	
CC(C)(C)[C@H]1C=C(C(=O)N2CCOCC2)O[C@@H](OCCCCO)C1		inactive: 7.27%
Cc1ccc(NC(=O)CCc2nc3ccccc3s2)c(O)c1		inactive: -1.55%
Cc1ccc(S(=O)(=O)NCCCn2ccnc2)cc1	inconclusive [inhibitor, single point]	
CSCC[C@H](NC(=O)OC(C)(C)C)c1nnc(SCC=C(C)C)o1		inactive: -9.4%
O=C(O)CCCC(=O)N1CCc2cc(S(=O)(=O)NCc3ccccc3)ccc21		inactive: -1.43%
O=C(/C=C/c1cccc(Cl)c1)c1nc2ccccc2[nH]1	active: 2.24 µM	
Cc1sc2nc(CN3CCCC3)nc(N3CCN(C(=O)c4ccco4)CC3)c2c1C		inactive: 4.46%
O=C(c1cccc(C(=O)N2CCN(c3ccc(F)cc3)CC2)c1)N1CCN(c2ccc(F)cc2)CC1		inactive: 2.51%
CC(=O)CCS(=O)(=O)c1ccc(Oc2ccc(S(=O)(=O)CCC(C)=O)cc2)cc1	inconclusive [inhibitor, single point]	
OCCN1CCN(CC#CCn2c3ccccc3c3ccccc32)CC1	inconclusive [inhibitor, single point]	
CCCc1cc(C(=O)NNC(=S)Nc2cccc(C)c2)cs1	active: 10 µM	
COc1ccc(C/C(C)=N/NC(=S)Nc2ccc(C(C)C)cc2)cc1	inconclusive [inhibitor, single point]	
Brc1ccc2[nH]c3c(N4CCc5ccccc5C4)ncnc3c2c1	inconclusive [inhibitor, partial curve]	
COc1ccc(Cc2nnc(SCC(=O)NCc3ccco3)o2)cc1	inconclusive [inhibitor, single point]	
COc1ccc(N2C(=O)CSC23C(=O)N2CCCc4cccc3c42)cc1 (configuration not stated)	active: 11.2 µM	
